The source of these data is article PMC12136788.

T1: UNK ZnF1-3 (human, UniProt Q9C0B0 31-174)
T1 sequence: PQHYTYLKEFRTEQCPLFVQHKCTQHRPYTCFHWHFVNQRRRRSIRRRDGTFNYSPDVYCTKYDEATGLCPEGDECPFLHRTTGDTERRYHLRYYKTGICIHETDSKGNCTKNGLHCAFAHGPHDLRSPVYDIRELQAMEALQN

B1: 179970342_179970462_6631_3pUTR_ENSG00000187231_ENST00000428443|human|control|control (ssRNA)
RNA: GGGAGUUCUACAGUCCGACGAUCAGGAUAAAGAAUACUCUAUUUUUUAUUCUGAAAAGAUAAUUAUAGCAAUGAUACCUUCCAUUCUGUUUAUUUCUGGAUAUUUUGGCUUCAACAAUUCUUUAUAUCAUAUUUUAUUCUUGACAACAGAGGAUUGAGCAUCA
B2: 115252300_115256491_533_CDS_ENSG00000213281_ENST00000369535|human|control|control (ssRNA)
RNA: GGGAGUUCUACAGUCCGACGAUCUAGCACCAUAGGUACAUCAUCCGAGUCUUUUACUCGCUUAAUCUGCUCCCUGUAGAGGUUAAUAUCCGCAAAUGACUUGCUAUUAUUGAUGGCAAAUACACAGAGGAAGCCUUCGCCUGUCAACAGAGGAUUGAGCAUCA
B3: chr7:28421298:28421299:+_ENSMUSG00000004056_ENSMUST00000051356|mus_mus|FALSE|FALSE (ssRNA)
RNA: GGGAGUUCUACAGUCCGACGAUCCAUCAUCUCAUACAUGACCACACCCAGCCCCCACCAGUCCACUGCUCGCCCAUAGUCAUUGUCCUCUAGCACCUCAGGCGCCAAGUACUCCGGGGUACCACAGAAGGUUUUCAUGGUGGCCAACAGAGGAUUGAGCAUCA
B4: chr4:144460044:144460045:+_ENSG00000153147_ENST00000283131|hu_mus|hu_hu_hu_mus_False|58_78 (ssRNA)
RNA: GGGAGUUCUACAGUCCGACGAUCACGGUCCAUAGCCUGAAGAUCAACUUGCGGAUUCCAAUCAGAAUCAUAUAAAAUUACUACAUCAGCAGUUGCAAGAUUGAUGCCCAGACCACCAGCACGUGUGCUUAGCAUAAAUACAAACAACAGAGGAUUGAGCAUCA
B5: chr7:102944291:102944292:+_ENSG00000105819_ENST00000453466|hu_mus|motif|central (ssRNA)
RNA: GGGAGUUCUACAGUCCGACGAUCCUCAAUCUCUGCUUCUCCCAGUGUGCUGUUCUGAAUUAUGUCAGCAAGAAUUUCGGCAGCUCUGGGCAAAUCUCUCGAGAAUGCUUUGGCGUAGUAGACAGUCUGCUCUCUGGAGGUAUACAACAGAGGAUUGAGCAUCA
B6: chr1:66480114:66480115:+_ENSMUSG00000015222_ENSMUST00000024639|mus_hu|mus_mus_mus_hu_True|28_108 (ssRNA)
RNA: GGGAGUUCUACAGUCCGACGAUCUGGCCUGUGACGGAUGUUCUUCAGAGAGCCACAUUUGGAUGUCACAUGGCUUAGGUCUAUUUUCUUGGUAACAAUUUGUACCUGACCCCCCUUAGGCUGGUAUUUGAUGUUGUCUGUUGACAACAGAGGAUUGAGCAUCA
B7: chr1:163138135:163138136:-_ENSG00000143248_ENST00000313961|hu_hu|FALSE|FALSE (ssRNA)
RNA: GGGAGUUCUACAGUCCGACGAUCAUUGUACGGAAUGACAAGGUCACCAACUGAGUCUGGCUUCUGGAGGAGAAUUCCCAACUUGAUCUUAAUCUCCUUGGCCCUUUCCAGGCAUGAGUGGGGCAAAGCUGCAAGUCCUUUGCACAACAGAGGAUUGAGCAUCA
B8: chrX:98862621:98862622:+_ENSMUSG00000034160_ENSMUST00000044475|mus_hu|mus_mus_mus_hu_False|8_28 (ssRNA)
RNA: GGGAGUUCUACAGUCCGACGAUCCUGCAUCUCCUUUAGAGUGUUUCCCAUAUUAGAGUAGGCAUCAGCAAAGGUAGGACUGAUUCGAAUAGCCUCCUUAUAAUGCAUCAGUGCUUCCUGCAGUUUUCCCUGCUGUUGCAGUACCAACAGAGGAUUGAGCAUCA
B9: chr18:60570258:60570259:+_ENSG00000081913_ENST00000262719|hu_mus|FALSE|FALSE (ssRNA)
RNA: GGGAGUUCUACAGUCCGACGAUCCUUAUUGUCUCGCAGGUCAAGCUGAGUGACAUGUUGCACAAAGUCCACCUCAUCUGCCAUAAGCUUUCUGAGUAUGUUCAGUCUUAGGUCCACAUGUUUAAUAUGAGGCAUUCUUCUUAACAACAGAGGAUUGAGCAUCA
B10: 57924663_57924783_1331_CDS_ENSMUSG00000003226_ENSMUST00000003310|mouse|control|control (ssRNA)
RNA: GGGAGUUCUACAGUCCGACGAUCUCUAGCCAAGUCAUCAGGGUCUGGCACUUGUCCAUCAAGGUUUCCAAUAUCAUCAUUCCCAAGAAAGGAUCUCUCCUUGGAUGACUGACUGGAAAACAGAGCAUCACAGAGAGCAGACUGCAACAGAGGAUUGAGCAUCA
B11: chrX:53596632:53596633:-_ENSG00000086758_ENST00000262854|hu_hu|FALSE|FALSE (ssRNA)
RNA: GGGAGUUCUACAGUCCGACGAUCGGCAUGUUUCUCUGUACUCUCAGCCAUAGCCAGUGCCCGUCCAAGGGCUGCUUUUACUUCAUUCACUAGGGCCACCUGGGCAUCUGUGCCACUCCCUGCAGCAGCCAGGCUUGCGAGGAACAACAGAGGAUUGAGCAUCA
B12: 106939881_106942074_2604_CDS_ENSMUSG00000040481_ENSMUST00000057892|mouse|control|control (ssRNA)
RNA: GGGAGUUCUACAGUCCGACGAUCUGUCUCCUCCUCCUCUUGUUUUUUCUCCUUUUUUUUAACUUUCUCUUUUUCUUCCCUUUCAAUUGAUGUCAUCCUAUGUAACCGGGUAUGUCCUAGAGACUCCCGCCAUAUUGGCAGCAUCAACAGAGGAUUGAGCAUCA
B13: 91870445_91871446_617_CDS_ENSG00000001631_ENST00000394505|human|control|control (ssRNA)
RNA: GGGAGUUCUACAGUCCGACGAUCGGGAACUUCAUGCAACAAAAUUUCAUAUGACUUAGCUCUGUAUUCCCGAGAAUUGAGACUGGCAGUAUUCUUUGGACGAAUAACAGCAACAUAUGCAUCUUCUAUGUUUUCUGGAUUUCCCAACAGAGGAUUGAGCAUCA
B14: chr6:90346886:90346887:-_ENSG00000083099_ENST00000520318|hu_hu|motif|central (ssRNA)
RNA: GGGAGUUCUACAGUCCGACGAUCCAGGGUAUGUUUUUCAGUGUUAAGGCAACUGUUCUGAUGUGUUUUUCCUUUGCUCUCGGUCACCAAAUACUGUACAUAUAAAUAGUAAGACUGGGCUUUGUGUUGUCCAUUGUUAAUCCUCAACAGAGGAUUGAGCAUCA
B15: chr20:9438074:9438075:+_ENSG00000101333_ENST00000334005|hu_hu|FALSE|FALSE (ssRNA)
RNA: GGGAGUUCUACAGUCCGACGAUCUUUGUGAUCUGAUGUCAGCGUCUGAAUUUUGAUUUCUGUUUCUUUUUUCAUUUCGAGACAAUUACUUCCCCCCUUCUUCUUCAUUGCCUUCUCUAGGAUUUUCUCAUGAGUCGACUUCUCCAACAGAGGAUUGAGCAUCA
B16: chr2:9570881:9570882:+_ENSG00000119203_ENST00000238112|hu_mus|hu_hu_hu_mus_False|8_108 (ssRNA)
RNA: GGGAGUUCUACAGUCCGACGAUCACUUGUCUUCUGUAGGAACCAGGGCAGGGCUCCACAGUGAUCCAAAUGGAAAUGACUGAUCAACAGAAGGUCGAUCUCAGCUGGGUCGAUAAGGUCAAUGUAAGGAAGAGCAUCCAUUCCCAACAGAGGAUUGAGCAUCA
B17: 40850453_40850573_1439_3pUTR_ENSG00000132872_ENST00000255224|human|control|control (ssRNA)
RNA: GGGAGUUCUACAGUCCGACGAUCAAAACCAAAAAUUCAACACUUAUAUCUUCAAGGCCCUCACAAGGAAUAUCAAAGACAAACAGCUCAUUGAACACUGCAUUGGGGGUGCAUUUCUUCACAUGAGUCUUCUUCUUGGAGAUUCAACAGAGGAUUGAGCAUCA
B18: chr17:64801638:64801639:+_ENSG00000154229_ENST00000413366|hu_mus|hu_hu_hu_mus_False|28_98 (ssRNA)
RNA: GGGAGUUCUACAGUCCGACGAUCUAUAUAUAUAUAUAUAUACACACACAUAUAUAGUAAAACCCUAGUUAAACGUGUAAAGUAGCCAUUCAUUUUUAAAAUUACAUCUACAUUUAAAAAUUAAUAUAUCUGAUAGAGUGCCAGCAACAGAGGAUUGAGCAUCA
B19: chr10:97366135:97366136:-_ENSG00000059573_ENST00000371224|hu_mus|FALSE|FALSE (ssRNA)
RNA: GGGAGUUCUACAGUCCGACGAUCACGAGCUUUCGUAAAAGAAAUGAAAUUACAUGUCGAGAGGCUGAGAAUGGCUGGGCUGGUCCCAGUCAAAACGCCAAGAGACUUUACCUCACUGAGGCGUUCCGGCAGCCAGGACUUUCCCAACAGAGGAUUGAGCAUCA
B20: chr6:86475052:86475053:-_ENSMUSG00000051695_ENSMUST00000053015|mus_hu|FALSE|FALSE (ssRNA)
RNA: GGGAGUUCUACAGUCCGACGAUCCUCAUUAAUGUUGGCGCCUUGGCGCCCGAUUAUGCAGCCAAUUAAGUUAUUUGGAAUGGUGAGUUCAUGGGUGGUUUGAGUAGAUGCAUCCAAACUUGCCCAAUAGCCUUUCACCUCUGGCAACAGAGGAUUGAGCAUCA
B21: chr1:63797873:63797874:+_ENSMUSG00000025962_ENSMUST00000128621|mus_hu|FALSE|FALSE (ssRNA)
RNA: GGGAGUUCUACAGUCCGACGAUCUCCUCUGGGGUGGCUUGAACCCAAACAAUAAGCAGAUCUGGAAACACAUAGCACAGCUACUCUUUGAAUAUCUGUAGCAGAAGUUGUAUCCACAUCAGAAAGUGGUAGCACUUGAUUCCUCAACAGAGGAUUGAGCAUCA
B22: chr1:43168039:43168040:+_ENSMUSG00000010290_ENSMUST00000010434|mus_hu|FALSE|FALSE (ssRNA)
RNA: GGGAGUUCUACAGUCCGACGAUCCUGUUUAGCGUCAUUAUUAUUGUGUUCCGUUUUAUUGUUCACAGGCAAAUUGGAAGACAAAAUUAGGGGUGAAACACUCGAAGAGGAAUUUGAUAAUUUUCUAAAGGCAUUACUGGUAAACAACAGAGGAUUGAGCAUCA

This is one part of the list.

The target of this test is T1, UNK ZnF1-3. Nature of the test: nsRBNS (natural sequence RNA bind-n-seq); RBNS binding buffer (assumed for nsRBNS): 25 mM Tris pH 7.5, 150 mM KCl, 3 mM MgCl2, 0.01% Triton X-100, 500 ug/ml BSA, 20 U/ml SUPERase-In, 4 C; UNK is unkempt and MSI1 is Musashi-1; names of the RNAs are library labels; protein concentration not given here; high values mean tight binding.
In turn, B1 gave a binding signal of 0.743 enrichment R.

B2: the binding signal amounted to 0.975 enrichment R.

For the molecule B3, the binding signal is 1.38 enrichment R.

Take B4: the binding signal was 1.74 enrichment R.

Turning to B5, the binding signal came to 0.784 enrichment R.

Consider B6, for which the binding signal was 0.485 enrichment R.

As to B7, the binding signal is 1.02 enrichment R.

In turn, B8 yielded a binding signal of 1.1 enrichment R.

In the case of B9, the binding signal was 0.834 enrichment R.

Consider B10, for which the binding signal stood at 1.17 enrichment R.

B11 came in with a binding signal of 1.05 enrichment R.

In turn, B12 gave a binding signal of 0.427 enrichment R.

In turn, B13 had a binding signal of 1.43 enrichment R.

On to B14, for which the binding signal came to 0.561 enrichment R.

The molecule B15 returned a binding signal of 0.201 enrichment R.

Molecule B16 yielded a binding signal of 1.65 enrichment R.

Consider B17, for which the binding signal came out at 1.2 enrichment R.

As to B18, the binding signal came to 2.88 enrichment R.

Regarding B19, the binding signal is 0.794 enrichment R.

In the case of B20, the binding signal came out at 0.468 enrichment R.

Turning to B21, the binding signal turned out to be 0.982 enrichment R.

B22 displayed a binding signal of 1.54 enrichment R.
